Sequences with one replicate were seen in a single cluster, so their values are uncertain.
System: ATP
Assay: switch fluorescence ratio, 500 uM ATP over buffer (Cy3 cluster intensity, sum of 5 cycles each) (fold (ratio)); higher = stronger signal-on switching upon ATP binding; sequences stand for … in TCGTCGGCAGCGTCAGATGTGTATAAGAGACAGTTTTTTTTTTTTTTTTTTTTTTTTT…TC
Conditions: aptamer strand: ATP DNA aptamer (quencher-CACCTGGGGGAGTATTGCGGAGGAAGG + anchor), 100 nM annealed; ATP concentration: 500 uM; one replicate
Procedure, shortened: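 Switching-strand clusters labelled with Cy3 on a modified Illumina MiSeq flow-cell were annealed to 100 nM quencher-labelled ATP aptamer, imaged in selection buffer, and re-imaged after 15 min with 500 uM ATP at 22 °C. This was done over five cycles with NaOH stripping and re-annealing in between. The fluorescence ratio is summed target-cycle over summed buffer-cycle Cy3 intensity per cluster, averaged per switch-domain sequence, excluding clusters outside 100-1000 RFU.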
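Note: ATP exposure 15 min at 22 °C before imaging.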

Question: How did the switch fluorescence ratio turn out when CGACTGGGGT was run?
Answer: 1.06

Question: For CGAGAAGCGG, which switch fluorescence ratio is on record?
Answer: 1.02

Question: CGAGAAGTT was tested. Which switch fluorescence ratio did it give?
Answer: 1.03

Question: Which switch fluorescence ratio does the source give for CGAGACCAGT here?
Answer: 1.13

Question: Which switch fluorescence ratio does the source give for CGAGAGCGTA here?
Answer: 0.987

Question: Which switch fluorescence ratio does the source give for CGAGAGGGAA here?
Answer: 1.02

Question: With CGAGATCGGG as the sequence, how does the switch fluorescence ratio read?
Answer: 0.982

Question: Which switch fluorescence ratio does the source give for CGAGATGGTG here?
Answer: 1.01

Question: With CGAGCATGAT as the sequence, how does the switch fluorescence ratio read?
Answer: 1.12

Question: CGAGCCCGGG was tested. Which switch fluorescence ratio did it give?
Answer: 1.71

Question: Which switch fluorescence ratio does the source give for CGAGCCTCAA here?
Answer: 1.05

Question: With CGAGCGCTTA as the sequence, how does the switch fluorescence ratio read?
Answer: 1.22

Question: With CGAGCTATAT as the sequence, how does the switch fluorescence ratio read?
Answer: 4.06

Question: How did the switch fluorescence ratio turn out when CGAGCTGC was run?
Answer: 0.993

Question: For CGAGGGACAA, which switch fluorescence ratio is on record?
Answer: 1.2

Question: How did the switch fluorescence ratio turn out when CGAGGGATTA was run?
Answer: 1.06

Question: CGAGGGCAGT was tested. Which switch fluorescence ratio did it give?
Answer: 1.18

Question: Which switch fluorescence ratio does the source give for CGAGGGCCCG here?
Answer: 1.01

Question: Which switch fluorescence ratio does the source give for CGAGGGTTAC here?
Answer: 1.11

Question: For CGAGGGTTAG, which switch fluorescence ratio is on record?
Answer: 0.964

Question: Which switch fluorescence ratio does the source give for CGAGGTAGGT here?
Answer: 0.975

Question: With CGAGGTATGG as the sequence, how does the switch fluorescence ratio read?
Answer: 1.02

Question: For CGAGGTCCCG, which switch fluorescence ratio is on record?
Answer: 1.03

Question: For CGAGGTGTTG, which switch fluorescence ratio is on record?
Answer: 1.01

Question: CGAGTAAACA was tested. Which switch fluorescence ratio did it give?
Answer: 1.06

Question: How did the switch fluorescence ratio turn out when CGAGTAATCC was run?
Answer: 1.74

Question: Which switch fluorescence ratio does the source give for CGAGTGACTT here?
Answer: 0.997

Question: With CGAGTTAACA as the sequence, how does the switch fluorescence ratio read?
Answer: 1.01

Question: Which switch fluorescence ratio does the source give for CGAGTTACTG here?
Answer: 1.03

Question: How did the switch fluorescence ratio turn out when CGAGTTGAGT was run?
Answer: 1.01

Question: How did the switch fluorescence ratio turn out when CGATAAGTAC was run?
Answer: 1.67

Question: With CGATAGAGTT as the sequence, how does the switch fluorescence ratio read?
Answer: 0.979

Question: With CGATAGGGTA as the sequence, how does the switch fluorescence ratio read?
Answer: 1.02

Question: For CGATATGCAA, which switch fluorescence ratio is on record?
Answer: 1.65

Question: Which switch fluorescence ratio does the source give for CGATCCTTTC here?
Answer: 1.47

Question: How did the switch fluorescence ratio turn out when CGATCGAGTC was run?
Answer: 0.987

Question: CGATCTGGCA was tested. Which switch fluorescence ratio did it give?
Answer: 0.992

Question: How did the switch fluorescence ratio turn out when CGATCTTAGT was run?
Answer: 1.03

Question: For CGATCTTGAA, which switch fluorescence ratio is on record?
Answer: 0.983

Question: With CGATGACGGA as the sequence, how does the switch fluorescence ratio read?
Answer: 0.921

Question: With CGATGAGCCT as the sequence, how does the switch fluorescence ratio read?
Answer: 0.999

Question: For CGATGATACA, which switch fluorescence ratio is on record?
Answer: 1.02

Question: Which switch fluorescence ratio does the source give for CGATGCGGCG here?
Answer: 1.03

Question: CGATGCTTA was tested. Which switch fluorescence ratio did it give?
Answer: 1.14

Question: CGATGGCCCG was tested. Which switch fluorescence ratio did it give?
Answer: 0.978

Question: How did the switch fluorescence ratio turn out when CGATGGCGT was run?
Answer: 1.04

Question: With CGATGTACTT as the sequence, how does the switch fluorescence ratio read?
Answer: 1.05

Question: How did the switch fluorescence ratio turn out when CGATGTATTC was run?
Answer: 1.1

Question: Which switch fluorescence ratio does the source give for CGATTAATG here?
Answer: 0.986

Question: For CGATTCCCGA, which switch fluorescence ratio is on record?
Answer: 1.05

Question: CGATTGAATT was tested. Which switch fluorescence ratio did it give?
Answer: 0.976

Question: CGATTGACGA was tested. Which switch fluorescence ratio did it give?
Answer: 1.01

Question: For CGATTGCAGC, which switch fluorescence ratio is on record?
Answer: 1.42

Question: CGATTGCTCC was tested. Which switch fluorescence ratio did it give?
Answer: 1.24

Question: For CGATTGGTGG, which switch fluorescence ratio is on record?
Answer: 1.02

Question: CGATTGTCGG was tested. Which switch fluorescence ratio did it give?
Answer: 0.97

Question: Which switch fluorescence ratio does the source give for CGATTGTTTG here?
Answer: 0.973

Question: CGATTTGGTG was tested. Which switch fluorescence ratio did it give?
Answer: 1.02

Question: CGCAAACGGG was tested. Which switch fluorescence ratio did it give?
Answer: 2.87

Question: With CGCAAGGGTA as the sequence, how does the switch fluorescence ratio read?
Answer: 3.84

Question: With CGCAATAAAT as the sequence, how does the switch fluorescence ratio read?
Answer: 5.04

Question: With CGCAATATTT as the sequence, how does the switch fluorescence ratio read?
Answer: 4.74

Question: Which switch fluorescence ratio does the source give for CGCAATGGGT here?
Answer: 3.99

Question: Which switch fluorescence ratio does the source give for CGCACGCTGG here?
Answer: 1.08

Question: How did the switch fluorescence ratio turn out when CGCACTGGGG was run?
Answer: 1.37

Question: Which switch fluorescence ratio does the source give for CGCACTTTG here?
Answer: 1.04

Question: For CGCAGAGCAT, which switch fluorescence ratio is on record?
Answer: 1.01

Question: With CGCAGGCATT as the sequence, how does the switch fluorescence ratio read?
Answer: 1.17

Question: Which switch fluorescence ratio does the source give for CGCAGGGATA here?
Answer: 7.05

Question: For CGCATACTCG, which switch fluorescence ratio is on record?
Answer: 4.82

Question: With CGCATCACCT as the sequence, how does the switch fluorescence ratio read?
Answer: 1.6

Question: For CGCATCACGA, which switch fluorescence ratio is on record?
Answer: 1.36

Question: How did the switch fluorescence ratio turn out when CGCATCCCAA was run?
Answer: 1.54

Question: How did the switch fluorescence ratio turn out when CGCATGCTGT was run?
Answer: 1.02

Question: Which switch fluorescence ratio does the source give for CGCATGGAA here?
Answer: 1.01

Question: With CGCATTACGT as the sequence, how does the switch fluorescence ratio read?
Answer: 6.68

Question: For CGCATTATGG, which switch fluorescence ratio is on record?
Answer: 1.52

Question: With CGCATTGAAA as the sequence, how does the switch fluorescence ratio read?
Answer: 1.06

Question: How did the switch fluorescence ratio turn out when CGCCACGGTA was run?
Answer: 1.04

Question: For CGCCACTAAA, which switch fluorescence ratio is on record?
Answer: 1.04

Question: With CGCCACTATA as the sequence, how does the switch fluorescence ratio read?
Answer: 1.15

Question: Which switch fluorescence ratio does the source give for CGCCAGATCT here?
Answer: 0.983

Question: With CGCCAGCTGT as the sequence, how does the switch fluorescence ratio read?
Answer: 1.05

Question: With CGCCCAGAT as the sequence, how does the switch fluorescence ratio read?
Answer: 1.03

Question: How did the switch fluorescence ratio turn out when CGCCCCACGC was run?
Answer: 1.14

Question: With CGCCCGCCTT as the sequence, how does the switch fluorescence ratio read?
Answer: 1.22

Question: How did the switch fluorescence ratio turn out when CGCCCGGCTT was run?
Answer: 1.03

Question: For CGCCCGGGGT, which switch fluorescence ratio is on record?
Answer: 1.24

Question: Which switch fluorescence ratio does the source give for CGCCCGTTTC here?
Answer: 1.04

Question: How did the switch fluorescence ratio turn out when CGCCCTTCCA was run?
Answer: 2.05

Question: Which switch fluorescence ratio does the source give for CGCCGATAGT here?
Answer: 1.07

Question: How did the switch fluorescence ratio turn out when CGCCGCAACG was run?
Answer: 1.08

Question: CGCCGCGTGT was tested. Which switch fluorescence ratio did it give?
Answer: 1.05

Question: For CGCCGTACAC, which switch fluorescence ratio is on record?
Answer: 1.29

Question: How did the switch fluorescence ratio turn out when CGCCGTACTG was run?
Answer: 1.02

Question: How did the switch fluorescence ratio turn out when CGCCGTGGGC was run?
Answer: 1.03

Question: With CGCCGTTGTA as the sequence, how does the switch fluorescence ratio read?
Answer: 1.01

Question: With CGCCTGAGAG as the sequence, how does the switch fluorescence ratio read?
Answer: 1.02

Question: CGCCTGAGAT was tested. Which switch fluorescence ratio did it give?
Answer: 0.999

Question: CGCCTGCGGG was tested. Which switch fluorescence ratio did it give?
Answer: 0.997

— the supplement of paper PMC10126150
